# This is one part of the list.
# B1: ABA (Agaricus bisporus), Q00022 (protein)
# chain: MTYTISIRVYQTTPKGFFRPVERTNWKYANGGTWDEVRGEYVLTMGGSGTSGSLRFVSSDTDESFVATFGVHNYKRWCDIVTNLTNEQTALVINQEYYGVPIRDQARENQLTSYNVANAKGRRFAIEYTVTEGDNLKANLIIG
# Experiments:
# Assay in all cases: glycan array binding signal (z-score within array); higher = stronger binding
# Details in all cases: glycan notation: IUPAC condensed, linker removed
# [1] = molecular target: Man(a1-3)[Man(a1-6)]Man
# How it was run: (§1)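 From the Consortium for Functional Glycomics database, 3228 arrays were curated, keeping only those whose protein sequence was available. Binding is given as a within-array Z-score averaged across arrays sharing a protein sequence and across linkers. Negative Z-scores can be read as non-binding.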
# [2] = molecular target: Man(a1-3)[Man(a1-6)]Man(a1-6)[Man(a1-2)Man(a1-3)]Man(b1-4)GlcNAc(b1-4)GlcNAc
# How it was run: as §1
# [3] = molecular target: Man(a1-3)[Man(a1-6)]Man(a1-6)[Man(a1-3)]Man
# How it was run: as §1
# [4] = molecular target: Man(a1-3)[Man(a1-6)]Man(a1-6)[Man(a1-3)]Man(b1-4)GlcNAc(b1-4)GlcNAc
# How it was run: as §1
# [5] = molecular target: Man(a1-3)[Man(a1-6)]Man(b1-4)GlcNAc(b1-4)GlcNAc
# How it was run: as §1
# [6] = molecular target: Man(a1-3)[Man(a1-6)]Man(b1-4)GlcNAc(b1-4)[Fuc(a1-6)]GlcNAc
# How it was run: as §1
# [7] = molecular target: Man(a1-6)Man
# How it was run: as §1
# [8] = molecular target: Man(b1-4)GlcNAc
# How it was run: as §1
# [9] = molecular target: MurNAc(b1-4)GlcNAc
# How it was run: as §1
# [10] = molecular target: Neu5Ac(a2-3)Gal
# How it was run: as §1
# [11] = molecular target: Neu5Ac(a2-3)Gal(b1-3)GalNAc
# How it was run: as §1
# [12] = molecular target: Neu5Ac(a2-3)Gal(b1-3)GalNAc(b1-3)Gal(a1-4)Gal(b1-4)Glc
# How it was run: as §1
# [13] = molecular target: Neu5Ac(a2-3)Gal(b1-3)GalNAc(b1-3)Gal(b1-4)GlcNAc
# How it was run: as §1
# [14] = molecular target: Neu5Ac(a2-3)Gal(b1-3)GalNAc(b1-4)[Neu5Ac(a2-3)]Gal(b1-4)Glc
# How it was run: as §1
# [15] = molecular target: Neu5Ac(a2-3)Gal(b1-3)GalNAc(b1-4)[Neu5Ac(a2-8)Neu5Ac(a2-3)]Gal(b1-4)Glc
# How it was run: as §1
# [16] = molecular target: Neu5Ac(a2-3)Gal(b1-3)GalNAc6S
# How it was run: as §1
# [17] = molecular target: Neu5Ac(a2-3)Gal(b1-3)GlcNAc
# How it was run: as §1
# [18] = molecular target: Neu5Ac(a2-3)Gal(b1-3)GlcNAc(b1-2)Man
# How it was run: as §1
# [19] = molecular target: Neu5Ac(a2-3)Gal(b1-3)GlcNAc(b1-2)Man(a1-3)[GlcNAc(b1-4)][Neu5Ac(a2-3)Gal(b1-3)GlcNAc(b1-2)Man(a1-6)]Man(b1-4)GlcNAc(b1-4)GlcNAc
# How it was run: as §1
# [20] = molecular target: Neu5Ac(a2-3)Gal(b1-3)GlcNAc(b1-2)Man(a1-3)[Neu5Ac(a2-3)Gal(b1-3)GlcNAc(b1-2)Man(a1-6)]Man(b1-4)GlcNAc(b1-4)GlcNAc
# How it was run: as §1
# [21] = molecular target: Neu5Ac(a2-3)Gal(b1-3)GlcNAc(b1-3)Gal(b1-3)GlcNAc
# How it was run: as §1
# [22] = molecular target: Neu5Ac(a2-3)Gal(b1-3)GlcNAc(b1-3)Gal(b1-4)GlcNAc
# How it was run: as §1
# [23] = molecular target: Neu5Ac(a2-3)Gal(b1-3)GlcNAc(b1-3)GalNAc
# How it was run: as §1
# [24] = molecular target: Neu5Ac(a2-3)Gal(b1-3)GlcNAc(b1-4)Gal(b1-4)Glc
# How it was run: as §1
# [25] = molecular target: Neu5Ac(a2-3)Gal(b1-3)GlcNAc(b1-6)GalNAc
# How it was run: as §1
# [26] = molecular target: Neu5Ac(a2-3)Gal(b1-3)GlcNAc6S
# How it was run: as §1
# [27] = molecular target: Neu5Ac(a2-3)Gal(b1-3)[Fuc(a1-4)]GlcNAc
# How it was run: as §1
# [28] = molecular target: Neu5Ac(a2-3)Gal(b1-3)[Fuc(a1-4)]GlcNAc(b1-3)Gal(b1-3)[Fuc(a1-4)]GlcNAc
# How it was run: as §1
# [29] = molecular target: Neu5Ac(a2-3)Gal(b1-3)[Fuc(a1-4)]GlcNAc(b1-3)Gal(b1-4)[Fuc(a1-3)]GlcNAc
# How it was run: as §1
# [30] = molecular target: Neu5Ac(a2-3)Gal(b1-3)[GlcNAc(b1-6)]GalNAc
# How it was run: as §1
# [31] = molecular target: Neu5Ac(a2-3)Gal(b1-3)[Neu5Ac(a2-3)Gal(b1-4)]GlcNAc
# How it was run: as §1
# [32] = molecular target: Neu5Ac(a2-3)Gal(b1-3)[Neu5Ac(a2-6)]GalNAc
# How it was run: as §1
# [33] = molecular target: Neu5Ac(a2-3)Gal(b1-3)[Neu5Ac(a2-6)]GlcNAc(b1-3)[Fuc(a1-3)[Gal(b1-4)]GlcNAc(b1-6)]Gal(b1-4)Glc
# How it was run: as §1
# [34] = molecular target: Neu5Ac(a2-3)Gal(b1-3)]Neu5Ac(a2-3)Gal(b1-4)]GlcNAc
# How it was run: as §1
# [35] = molecular target: Neu5Ac(a2-3)Gal(b1-4)Glc
# How it was run: as §1
# [36] = molecular target: Neu5Ac(a2-3)Gal(b1-4)GlcNAc
# How it was run: as §1
# [37] = molecular target: Neu5Ac(a2-3)Gal(b1-4)GlcNAc(b1-2)Man
# How it was run: as §1
# [38] = molecular target: Neu5Ac(a2-3)Gal(b1-4)GlcNAc(b1-2)Man(a1-3)[GlcNAc(b1-4)][Neu5Ac(a2-3)Gal(b1-4)GlcNAc(b1-2)Man(a1-6)]Man(b1-4)GlcNAc(b1-4)GlcNAc
# How it was run: as §1
# [39] = molecular target: Neu5Ac(a2-3)Gal(b1-4)GlcNAc(b1-2)Man(a1-3)[Neu5Ac(a2-3)Gal(b1-4)GlcNAc(b1-2)Man(a1-6)]Man(b1-4)GlcNAc(b1-4)GlcNAc
# How it was run: as §1
# [40] = molecular target: Neu5Ac(a2-3)Gal(b1-4)GlcNAc(b1-2)Man(a1-3)[Neu5Ac(a2-3)Gal(b1-4)GlcNAc(b1-2)Man(a1-6)]Man(b1-4)GlcNAc(b1-4)[Fuc(a1-6)]GlcNAc
# How it was run: as §1
# [41] = molecular target: Neu5Ac(a2-3)Gal(b1-4)GlcNAc(b1-2)Man(a1-3)[Neu5Ac(a2-6)Gal(b1-4)GlcNAc(b1-2)Man(a1-6)]Man(b1-4)GlcNAc(b1-4)GlcNAc
# How it was run: as §1
# [42] = molecular target: Neu5Ac(a2-3)Gal(b1-4)GlcNAc(b1-2)[Neu5Ac(a2-3)Gal(b1-4)GlcNAc(b1-4)]Man(a1-3)[GlcNAc(b1-4)][Neu5Ac(a2-3)Gal(b1-4)GlcNAc(b1-2)[Neu5Ac(a2-3)Gal(b1-4)GlcNAc(b1-6)]Man(a1-6)]Man(b1-4)GlcNAc(b1-4)GlcNAc
# How it was run: as §1
# [43] = molecular target: Neu5Ac(a2-3)Gal(b1-4)GlcNAc(b1-2)[Neu5Ac(a2-3)Gal(b1-4)GlcNAc(b1-4)]Man(a1-3)[GlcNAc(b1-4)][Neu5Ac(a2-3)Gal(b1-4)GlcNAc(b1-4)Man(a1-6)]Man(b1-4)GlcNAc(b1-4)GlcNAc
# How it was run: as §1
# [44] = molecular target: Neu5Ac(a2-3)Gal(b1-4)GlcNAc(b1-2)[Neu5Ac(a2-3)Gal(b1-4)GlcNAc(b1-6)]Man(a1-6)[Neu5Ac(a2-3)Gal(b1-4)GlcNAc(b1-2)Man(a1-3)]Man(b1-4)GlcNAc(b1-4)GlcNAc
# How it was run: as §1
# [45] = molecular target: Neu5Ac(a2-3)Gal(b1-4)GlcNAc(b1-2)[Neu5Ac(a2-3)Gal(b1-4)GlcNAc(b1-6)]Man(a1-6)[Neu5Ac(a2-3)Gal(b1-4)GlcNAc(b1-2)Man(a1-3)][GlcNAc(b1-4)]Man(b1-4)GlcNAc(b1-4)GlcNAc
# How it was run: as §1
binder,measurement,setting,value
B1,glycan array binding signal (z-score),[1],-0.224
same,glycan array binding signal (z-score),[2],2.82
same,glycan array binding signal (z-score),[3],-0.112
same,glycan array binding signal (z-score),[4],-0.202
same,glycan array binding signal (z-score),[5],0.241
same,glycan array binding signal (z-score),[6],-0.221
same,glycan array binding signal (z-score),[7],-0.012
same,glycan array binding signal (z-score),[8],-0.205
same,glycan array binding signal (z-score),[9],-0.275
same,glycan array binding signal (z-score),[10],-0.22
same,glycan array binding signal (z-score),[11],0.197
same,glycan array binding signal (z-score),[12],-0.117
same,glycan array binding signal (z-score),[13],0.11
same,glycan array binding signal (z-score),[14],-0.39
same,glycan array binding signal (z-score),[15],-0.227
same,glycan array binding signal (z-score),[16],1.56
same,glycan array binding signal (z-score),[17],-0.201
same,glycan array binding signal (z-score),[18],-0.143
same,glycan array binding signal (z-score),[19],-0.133
same,glycan array binding signal (z-score),[20],0.103
same,glycan array binding signal (z-score),[21],-0.264
same,glycan array binding signal (z-score),[22],-0.286
same,glycan array binding signal (z-score),[23],-0.149
same,glycan array binding signal (z-score),[24],-0.182
same,glycan array binding signal (z-score),[25],-0.27
same,glycan array binding signal (z-score),[26],0.596
same,glycan array binding signal (z-score),[27],-0.265
same,glycan array binding signal (z-score),[28],-0.25
same,glycan array binding signal (z-score),[29],-0.219
same,glycan array binding signal (z-score),[30],0.85
same,glycan array binding signal (z-score),[31],-0.16
same,glycan array binding signal (z-score),[32],0.179
same,glycan array binding signal (z-score),[33],-0.229
same,glycan array binding signal (z-score),[34],-0.265
same,glycan array binding signal (z-score),[35],-0.172
same,glycan array binding signal (z-score),[36],-0.272
same,glycan array binding signal (z-score),[37],0.086
same,glycan array binding signal (z-score),[38],-0.274
same,glycan array binding signal (z-score),[39],-0.252
same,glycan array binding signal (z-score),[40],-0.272
same,glycan array binding signal (z-score),[41],-0.271
same,glycan array binding signal (z-score),[42],-0.264
same,glycan array binding signal (z-score),[43],-0.272
same,glycan array binding signal (z-score),[44],-0.242
same,glycan array binding signal (z-score),[45],-0.292

# Reference: the supplement of paper PMC8728848
